Where a name gives a salt, the structure may show the parent alone. ± gives the standard deviation of the averaged measurements. Whole data set: some 2,000 compounds, median “cell viability relative to DMSO control (compound alone)” near 0.98, cut for the lowest 2% near 0.23. The list shows a part of the results.
tested on: PDC-DUC18828; experiment: cell viability relative to DMSO control (compound alone) (fraction); PDC-DUC18828 is a patient-derived cholangiocarcinoma cell line; higher = less growth inhibition; conditions: 1 µM; 72 h
Method: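 Selleck Bioactive library screen in the patient-derived FGFR2-G3BP2 fusion-positive ICC cell line PDC-DUC18828 (500 cells/well). Each compound was tested at 1 uM alone, in triplicate, for 72 h. Viability was read by CellTiter-Glo and normalised to plate DMSO controls.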

| Compound | cell viability |
| --- | --- |
| O=C1c2c(O)cccc2C([C@@H]2O[C@H](CO)[C@@H](O)[C@H](O)[C@H]2O)c2cc(CO)cc(O)c21 (stereo partly specified) [Aloin] | 0.991 ± 0.044 |
| Cc1ccccc1C(=O)Nc1ccc(C(=O)N2CCCC(O)c3cc(Cl)ccc32)c(C)c1 (stereo unspecified) [Tolvaptan] | 0.984 ± 0.038 |
| CN(C)C(=O)C(CCN1CCC(O)(c2ccc(Cl)cc2)CC1)(c1ccccc1)c1ccccc1 [Loperamide HCl] | 0.853 ± 0.027 |
| CCN(CC)CCNC(=O)c1c(C)[nH]c(/C=C2\C(=O)Nc3ccc(F)cc32)c1C [Sunitinib] | 1.01 ± 0.036 |
| CCN(CC)CCNC(=O)c1c(C)[nH]c(/C=C2\C(=O)Nc3ccc(F)cc32)c1C [Sunitinib Malate] | 1.03 ± 0.083 |
| COc1ccc(/C=C/C(=O)Nc2ccccc2C(=O)O)cc1OC [Tranilast] | 1.03 ± 0.036 |
| CCOC(=O)C1=C(COCCN)NC(C)=C(C(=O)OC)C1c1ccccc1Cl (stereo unspecified) [Amlodipine] | 0.972 ± 0.066 |
| Oc1ccc(/C=C/c2cc(O)cc(O)c2)cc1 [Resveratrol] | 1.06 ± 0.034 |
| Cc1ncc(CCCN(C)C)cc1Nc1ncc2c(n1)-c1ccc(C(F)(F)F)cc1NC(=S)C2 | 0.259 ± 0.017 |
| Cc1cc(/C=C/C#N)cc(C)c1Nc1ccnc(Nc2ccc(C#N)cc2)n1 [Rilpivirine] | 0.98 ± 0.057 |
| CCOc1cc2ncc(C#N)c(Nc3ccc(F)c(Cl)c3)c2cc1NC(=O)/C=C/CN(C)C [Pelitinib (EKB-569)] | 0.793 ± 0.025 |
| Cc1c(N(C)C)c(=O)n(-c2ccccc2)n1C [Amidopyrine] | 1.02 ± 0.04 |
| COc1ccccc1OCC(O)CO (stereo unspecified) [Guaifenesin] | 1.02 ± 0.06 |
| Nc1nc(CC(=O)Nc2ccc(CCNC[C@H](O)c3ccccc3)cc2)cs1 [Mirabegron] | 0.992 ± 0.023 |
| CC[C@]1(O)C[C@H]2CN(CCc3c([nH]c4ccccc34)[C@@](C(=O)OC)(c3cc4c(cc3OC)N(C=O)[C@H]3[C@@](O)(C(=O)OC)[C@H](OC(C)=O)[C@]5(CC)C=CCN6CC[C@]43[C@@H]65)C2)C1 [Vincristine] | 0.236 ± 0.014 |
| CC(=O)[C@H]1CC[C@H]2[C@@H]3C=CC4=CC(=O)CC[C@@]4(C)[C@@H]3CC[C@]12C [Dydrogesterone] | 1.09 ± 0.025 |
| O=S(=O)(NCCSSCCNS(=O)(=O)c1cc(Cl)ccc1Cl)c1cc(Cl)ccc1Cl | 0.961 ± 0.03 |
| Cc1cc(=O)[nH]c(=S)[nH]1 [Methylthiouracil] | 0.928 ± 0.052 |
| CN1[C@@H]2CC[C@H]1C[C@@H](OC(=O)c1c[nH]c3ccccc13)C2 [Tropisetron] | 0.993 ± 0.064 |
| Cc1cccc(C)c1OCC(C)N (stereo unspecified) [Mexiletine HCl] | 0.945 ± 0.011 |
| OCCOCCN1CCN(C2=Nc3ccccc3Sc3ccccc32)CC1 [Quetiapine Fumarate] | 0.975 ± 0.031 |
| Cc1nc(Nc2cnn(C3CCNCC3)c2)nc2c1N(C)C(=O)c1cc3ccccc3cc1N2C | 1.01 ± 0.054 |
| CC1(C)S[C@@H]2[C@H](NC(=O)[C@H](N)c3ccc(O)cc3)C(=O)N2[C@H]1C(=O)O [Amoxicillin Sodium] | 1 ± 0.029 |
| CC1(C)S[C@@H]2[C@H](NC(=O)[C@H](N)c3ccc(O)cc3)C(=O)N2[C@H]1C(=O)O [Amoxicillin] | 0.962 ± 0.058 |
| Cc1cc(C(=O)NOCCO)c(Nc2ccc(I)cc2F)n(C)c1=O | 0.559 ± 0.036 |
| COc1cccc2c1C(=O)c1c(O)c3c(c(O)c1C2=O)C[C@@](O)(C(=O)CO)C[C@@H]3O[C@H]1C[C@H](N)[C@H](O)[C@H](C)O1 [Doxorubicin (Adriamycin)] | 0.136 ± 0.015 |

| Compound | cell viability |
| --- | --- |
| O=C([C@@H](Cc1cccc(C(F)(F)F)c1)NS(=O)(=O)c1cc(F)c2c(c1)CCNC2)N1CCCC1 | 1.01 ± 0.05 |
| Nc1nc(Cl)nc2c1ncn2[C@H]1C[C@H](O)[C@@H](CO)O1 [Cladribine] | 0.382 ± 0.01 |
| O=C(C=Cc1ccccc1)NC(NC(=S)Nc1ccc(Cl)cc1)C(Cl)(Cl)Cl (stereo unspecified) | 0.969 ± 0.023 |
| Fc1ccc(C(c2ccc(F)cc2)N2CCN(C/C=C/c3ccccc3)CC2)cc1 [Flunarizine 2HCl] | 1.07 ± 0.044 |
| Oc1ccc([C@H]2COc3cc(O)ccc3C2)cc1 [Equol] | 0.934 ± 0.0094 |
| O=c1cc(-c2cccc3c2Sc2ccccc2S3)oc(N2CCOCC2)c1 | 1.05 ± 0.068 |
| Cc1ccc(Nc2c(F)cccc2Cl)c(CC(=O)O)c1 [Lumiracoxib] | 0.974 ± 0.022 |
| CCCCC(=O)O[C@H]1CC[C@H]2[C@@H]3CCc4cc(O)ccc4[C@H]3CC[C@]12C [Estradiol valerate] | 0.965 ± 0.037 |
| Cc1nc2ccc(-n3ncc(C(=O)c4cc5ccccc5[nH]4)c3N)cc2[nH]1 | 0.84 ± 0.02 |
| N#Cc1c(O)c2c(-c3ccc(-c4ccccc4O)cc3)csc2[nH]c1=O | 0.977 ± 0.05 |
| Cc1[nH]c2ccccc2c1CCNC(=O)c1cccs1 | 0.917 ± 0.053 |
| N=C(N)c1ccc(OCCCCCOc2ccc(C(=N)N)cc2)cc1 [Pentamidine] | 1.04 ± 0.021 |
| CO/N=C(\C(=O)N[C@@H]1C(=O)N2C(C(=O)OCOC(=O)C(C)(C)C)=C(/C=C\c3scnc3C)CS[C@H]12)c1csc(N)n1 [Cefditoren Pivoxil] | 1.01 ± 0.032 |
| CCCc1cc(=O)[nH]c(=S)[nH]1 [Propylthiouracil] | 0.924 ± 0.042 |
| COc1ccc(CCN(C)CCCC(C#N)(c2ccc(OC)c(OC)c2)C(C)C)cc1OC (stereo unspecified) [Verapamil HCl] | 1.01 ± 0.053 |
| Cc1onc(-c2ccccc2)c1-c1ccc(S(N)(=O)=O)cc1 [Valdecoxib] | 1.042 ± 0.0045 |
| O=C(Nc1ccccc1)c1cc([N+](=O)[O-])ccc1Cl | 0.883 ± 0.081 |
| C=C1C(=O)O[C@@H]2/C=C(\C)CC/C=C(\C)CC[C@@H]12 [Costunolide] | 0.953 ± 0.079 |
| C[C@]12CCC(=O)C=C1CC[C@@H]1[C@@H]2[C@@H](O)C[C@@]2(C)[C@H]1CC[C@]2(O)C(=O)CO [Hydrocortisone] | 0.93 ± 0.053 |
| C=CC(=O)Nc1cccc(C)c1Nc1ncc2cc(-c3c(Cl)c(OC)cc(OC)c3Cl)ccc2n1 | 0.795 ± 0.021 |
| O=C(CCc1ccc(O)cc1)c1c(O)cc(O)cc1O[C@@H]1O[C@H](CO)[C@@H](O)[C@H](O)[C@H]1O [Phlorizin] | 1.01 ± 0.094 |
| COc1ccccc1C(=O)Nc1cc2c(cc1N1CCCC1)n(C)c(=O)n2C | 1.01 ± 0.036 |
| C=C[C@]1(C)C[C@@H](OC(=O)CS[C@@H]2C[C@H]3CC[C@@H](C2)N3C)[C@]2(C)[C@H](C)CC[C@]3(CCC(=O)[C@H]32)[C@@H](C)[C@@H]1O [Retapamulin] | 1.02 ± 0.047 |
| Oc1ncnc2[nH]ncc12 [Allopurinol] | 0.993 ± 0.062 |
| CN(N=O)C(=O)NC1C(O)OC(CO)C(O)C1O (stereo unspecified) [Streptozotocin (STZ)] | 0.97 ± 0.06 |
| C[N+]1(C)[C@@H]2CC[C@H]1C[C@@H](OC(=O)C(O)c1ccccc1)C2 (stereo partly specified) [Homatropine Methylbromide] | 0.971 ± 0.036 |

| Compound | cell viability |
| --- | --- |
| COC(=O)C1=C(C)NC(C)=C(C(=O)OCCN2CCN(C(c3ccccc3)c3ccccc3)CC2)C1c1cccc([N+](=O)[O-])c1 (stereo unspecified) [Manidipine 2HCl] | 0.986 ± 0.038 |
| COC(=O)C1=C(C)NC(C)=C(C(=O)OCCN2CCN(C(c3ccccc3)c3ccccc3)CC2)C1c1cccc([N+](=O)[O-])c1 (stereo unspecified) [Manidipine] | 0.976 ± 0.031 |
| CC(C)N(C[C@H]1O[C@@H](n2cnc3c(N)ncnc32)[C@H](O)[C@@H]1O)[C@H]1C[C@@H](CCc2nc3cc(C(C)(C)C)ccc3[nH]2)C1 | 0.94 ± 0.035 |
| COC(c1ccccc1)(c1ccccc1)[C@H](Oc1nc(C)cc(C)n1)C(=O)O [Ambrisentan] | 1.06 ± 0.055 |
| CC(=O)Nc1ccccc1 [Acetanilide] | 0.961 ± 0.041 |
| O=C(/C=C/c1ccc2ccccc2n1)c1ccncc1 | 1.03 ± 0.025 |
| Cc1cc(C(N)=O)ccc1-n1c(CCC(=O)O)ccc1-c1ccc(-n2ccnc2)cc1 | 0.998 ± 0.046 |
| COC(=O)C[C@H](NC(=O)[C@H](C)NC(=O)[C@@H](NC(=O)OCc1ccccc1)C(C)C)C(=O)CF | 0.98 ± 0.037 |
| CC(C(=O)O)c1ccc2c(c1)Cc1cccnc1O2 (stereo unspecified) [Pranoprofen] | 1.04 ± 0.022 |
| O=C(N/N=C/c1cc(O)c(O)cc1O)c1cc2ccccc2cc1O [Dyngo-4a] | 0.833 ± 0.06 |
| Clc1ccc(NN=C(c2ccccc2)c2ccccn2)nc1 | 0.319 ± 0.014 |
| C[N+]1(C)[C@@H]2C[C@@H](OC(=O)C(O)(c3cccs3)c3cccs3)C[C@H]1[C@@H]1O[C@@H]12 [Tiotropium Bromide hydrate] | 1 ± 0.055 |
| O=C[C@H](O)[C@@H](O)[C@H](O)CO [Xylose] | 1.08 ± 0.046 |
| CC(=O)O[C@]1(C(C)=O)CC[C@H]2[C@@H]3C[C@H](C)C4=CC(=O)C=C[C@]4(C)[C@@]3(F)[C@@H](O)C[C@@]21C [Fluorometholone Acetate] | 0.849 ± 0.046 |
| COc1ccc([C@@H]2CC(=O)c3c(O)cc(O[C@@H]4O[C@H](CO[C@@H]5O[C@@H](C)[C@H](O)[C@@H](O)[C@H]5O)[C@@H](O)[C@H](O)[C@H]4O)cc3O2)cc1O [Hesperidin] | 0.958 ± 0.042 |
| O=c1cc(N2CCOCC2)oc2c(-c3cccc4c3sc3ccccc34)cccc12 | 1.01 ± 0.033 |
| CC(C)(C(=O)O)c1ccc(C(O)CCCN2CCC(C(O)(c3ccccc3)c3ccccc3)CC2)cc1 (stereo unspecified) [Fexofenadine HCl] | 0.999 ± 0.043 |
| Cc1onc(-c2c(Cl)cccc2Cl)c1C(=O)N[C@@H]1C(=O)N2[C@@H]1SC(C)(C)[C@@H]2C(=O)O [Dicloxacillin Sodium] | 1.02 ± 0.03 |
| Cc1cc(NC(=O)Nc2ccc(N(C)C)cc2)c2cc(F)cc(F)c2n1 | 1.01 ± 0.04 |
| Cn1cc(-c2ccc3ncc(Cc4ccc5ncccc5c4)n3n2)cn1 | 0.968 ± 0.015 |
| CC1C(=O)OC2C(O)C34C5CC(C(C)(C)C)C36C(OC(=O)C6O)OC4(C(=O)O5)C12O (stereo unspecified) [Ginkgolide B] | 1.03 ± 0.02 |
| CN(C)/N=N/c1[nH]cnc1C(N)=O [Dacarbazine] | 0.993 ± 0.034 |
| O=C(O)c1cccnc1Nc1cccc(C(F)(F)F)c1 [Niflumic acid] | 0.989 ± 0.022 |
| Cc1oncc1C(=O)Nc1ccc(C(F)(F)F)cc1 [Leflunomide] | 0.946 ± 0.043 |
